# From the RNAGym collection of RNA variant scans (doi:10.7554/elife.90254)
# The source gives no read counts; variants with many changes may rest on few reads.
# B1: LINE1-full (parent)
# chain: UACGUAGGUGGUUUUCCCCUGAUAGUGCUAAGGGGGCCUGGAAGUUUGGACUGGGCAGAGCUCAACACAGCGUGGCAAAGUGGCUGUGGCUAGACUGCCUCUCUGGAUUCCUCGUCACUCAGCAGGGCAUCUCUGAGAGAAAUGCC
# Variants of: B1
# Experiment: self-cleavage, relative activity (ratio to wild type); higher = more cleavage; in vitro, sequencing; the parent is a self-cleaving ribozyme
row,Variant,self-cleavage
1,UACGUAGGUGGUUUUCCCCUGGUAGUGCUAAGGGGGCCUGGAAGUUUGGACUGGGCAGAGCUCAACACAGCGUGGCGAAGUGGCUGUGGCUAGACUGCCUCUCUGGAUUCCUCGUCACUCAGCAGGACAUCUCGGAGAGAAAUGCC [A22G A77G G127A U134G],1.91
2,UACGUAGGUGGUUUUCCCCUGGUAGUGCUAAGGGGGCCUGGAAGUUUGGACUGGGCGGAGCUCAACACAGCGUGGCAAAGUGGCUGUGGCUAGUCUGCCUCUCUGGAUUCCUCGUCACUCAGCAGGGCAUCUCUGAGAGAAAUGCC [A22G A57G A94U],0
3,UACGUAGGUGGUUUUCCCCUGGUAGUGCUAAGGGGGCCUGGAAGUUUGGACUGGGCAGAGCUCAACACAGCGUGGCAAAGUGGCUGUGGCUUGACUGCCUCUCUGGAUUCCUCGUCACUCAGCAGGCCAUCUCUGGGAGAAAUGCC [A22G A92U G127C A136G],0.53
4,UACGUAGGUGGUUUUCCCCUGGUAGUGCUAAGGGGGCCUGGAAGUUUGGACUGGGCAGAGCUCAGCACAGCGUGGCAAAGUGGCUGUGGCUAGACUGCCUCUCUGGAUUCCUCGUCACCCAGCAGGGCAUCUCUGAGAGAAAUGCC [A22G A65G U119C],0
5,UACGUAGGUGGUUUUCCCCUGGUAGUGCUAAGGGGGCCUGGAAGUUUGGACUGGGCAGAGCUCAACACGGCGUGGCAAAGUGGCUGUGGCUAGACUGCCUCUCUGGAUUCCUCGCCACUCAGCAGGGCGUCUCUGAGAGAAAUGCC [A22G A69G U115C A129G],0
6,UACGUAGGUGGUUUUCCCCUGGUAGUGCUAAGGGGGCCUGGAAGUUUGGGCUGGGCAGAGCUCAACACAGCGUGGCAAAGUGGCUGUGGCUAGACUGCCUCUCUGGAUUCCUCGUCACUCAGCAGGGCAUCUCUGGGAGAAAUGCC [A22G A50G A136G],1.02
7,UACGUAGGUGGUUUUCCCCUGGUAGUGCUAAGGGGGCCUGGAAGUUUGGACUGGGCAGAGCUCAACACAGCGUGGCAAAGUGGCUGUGGCUAGACUGCCUCUCUGGGUUCCUCGUCACUCAGCAGGGCAUCUCUGAGAGAAUAGCC [A22G A107G A142U U143A],1.86
8,UACGUAGGUGGUUUUCCCCUGGUAGUGCUAAGGGGGCCUGGAAGUUUGGGCUGGGCAGAGCUCAACACAGCGUGGCAAAGUGGCUGUGGCUAGACUGCCUCUCUGGAUUCCUCGUCACUCAGCAGGGUAUCUCUGAGAGAAAUGCC [A22G A50G C128U],0.55
9,UACGUAGGUGGUUUUCCCCUGGUAGUGCUAAGGGGGCCUGGAAGUUUGGACUGGGCAGAGCUCUACACAGCGUGGCAAAGUGGCUGUGGCUAGACUGCCUCUCUGGACUCCUCGUCACCCGGCAGGGCAUCUCUGAGAGAAAUGCC [A22G A64U U108C U119C A121G],0.66
10,UACGUAGGUGGUUUUCCCCUGGUAGUGCUAAGGGGGCCUGGAAGUUUGGACUGGGCAGAGCUCAACUCAGGGUGGCAAAGUGGCUGUGGCCAGACCGCCUCUCUGGAUUCCUCGUCACUCAGCAGGGCAUCUCUGAGAGAAACGCC [A22G A67U C71G U91C U96C U143C],0.08
11,UACGUAGGUGGUUUUCCCCUGGUAGUGCUAAGGGGGCCUGGAAGUUUGGACUGGGCAGAGCUCAACACAGCGUGGCAAGGUGGCUGUGGCUAGACUGCCUCUCUGGAUUCCUCGUCACUCAGCAGGGCUUCUCCGAGAGGAAUGCC [A22G A79G A129U U134C A140G],0.57
12,UACGUAGGUGGUUUUCCCCUGGUAGUGCUAAGGGGGCCUGGAAGUUUGGACUGGGCAGAGCUCAACACAGCGUGGCAAGGUGGCUGUGGCUAGACUGCCUCUCUGGAUUCCUCGUCACUCAGCAGGUCAUCUCUGUGAGAAAUGCC [A22G A79G G127U A136U],1.03
13,UACGUAGGUGGUUUUCCCCUGGUAGUGCUAAGGGGGCCUGGAAGUUUGGACUGGGCAGAGCUCAACACAGCGUGGCUAAGUGGCUGUGGCUAGACUGCCUCUCUGGAUUCCUCGUCACUCAGCAGGGCAUCUCUGGGAGAAAUACC [A22G A77U A136G G144A],1.45
14,UACGUAGGUGGUUUUCCCCUGGUAGUGCUAAGGGGGCCUGGAAGUUUGGACUGGGCAGAGCUCAACACGGCGUGGCAAAGUGGCUGUGGUUAGCCUGCCUCUCUGGAUUCCUCGUCACUCAGCAGGGCAUCUCUGAGAGGAAUGCC [A22G A69G C90U A94C A140G],0.3
15,UACGUAGGUGGUUUUCCCCUGGUAGUGCUAAGGGGGCCUGGAAGUUUGGACUGGGCAGAGCUCAACACAGCGUGGCAGAGUGGCUGUGGCUGGACUGCCUCUCUGGGUUCCUCGUCACUCAGCAGGGCAUCUCUGAGAGAAAUGCC [A22G A78G A92G A107G],0
16,UACGUAGGUGGUUUUCCCCUGGUAGUGCUAAGGGGGCCUGGAAGUUUGGGCUGGGCAGGGCUCAACACAGCGUGGCAAAGUGGCUGUGGCUAGACUGCCUCUCUGGAUUCCUCGUCACUCAGCAGGGCAUCUCUGAGUGAAAUGCC [A22G A50G A59G A138U],0
17,UACGUAGGUGGUUUUCCCCUGGUAGUGCUAAGGGGGCCUGGAAGUUUGGUCUGGGCAGAGCUCAACACAGCGUGGCAAAGUGGCUGUGGCUAGACUGCCUCUCUGGAUUCCUCGUAACUCAGCAGGGCAUCUCUGAGAGAAAUGCC [A22G A50U C116A],0.38
18,UACGUAGGUGGUUUUCCCCUGGUAGUGCUAAGGGGGCCUGGAAGUUUGGACUGGGCAGAGCUCAACACAGCGUGGCAAGGUGGCUGUGGCUAGACUGCCUCUCUGGACUCCUCGUCACUCAGCAGGGCAUCUCUGAGAGAAAUGCC [A22G A79G U108C],2.63
19,UACGUAGGUGGUUUUCCCCUGGUAGUGCUAAGGGGGCCUGGAAGUUUGGACUGGGCAGAGCUCAACGCAGCGUGGCAAAGUGGCUGUGGCUAGACUACCUCUCUGGAUUCCUCGUCACUCAGCAGGGCAUCUCUGAGAGAAAUGCC [A22G A67G G97A],0.04
